Test results from article PMC4336329 (PLoS ONE, 2015).
Among all 310,000 compounds or so, about 2,200 (0.71%) showed an effect of 50% or more. The effect is printed as a negative number. The list shows a part of the results.

target: human ether-à-go-go-related gene (hERG) potassium channel (human, UniProt Q12809); assay: primary screen, population patch clamp on CHO cells stably expressing hERG
Sequence (Q12809 whole entry, looked up): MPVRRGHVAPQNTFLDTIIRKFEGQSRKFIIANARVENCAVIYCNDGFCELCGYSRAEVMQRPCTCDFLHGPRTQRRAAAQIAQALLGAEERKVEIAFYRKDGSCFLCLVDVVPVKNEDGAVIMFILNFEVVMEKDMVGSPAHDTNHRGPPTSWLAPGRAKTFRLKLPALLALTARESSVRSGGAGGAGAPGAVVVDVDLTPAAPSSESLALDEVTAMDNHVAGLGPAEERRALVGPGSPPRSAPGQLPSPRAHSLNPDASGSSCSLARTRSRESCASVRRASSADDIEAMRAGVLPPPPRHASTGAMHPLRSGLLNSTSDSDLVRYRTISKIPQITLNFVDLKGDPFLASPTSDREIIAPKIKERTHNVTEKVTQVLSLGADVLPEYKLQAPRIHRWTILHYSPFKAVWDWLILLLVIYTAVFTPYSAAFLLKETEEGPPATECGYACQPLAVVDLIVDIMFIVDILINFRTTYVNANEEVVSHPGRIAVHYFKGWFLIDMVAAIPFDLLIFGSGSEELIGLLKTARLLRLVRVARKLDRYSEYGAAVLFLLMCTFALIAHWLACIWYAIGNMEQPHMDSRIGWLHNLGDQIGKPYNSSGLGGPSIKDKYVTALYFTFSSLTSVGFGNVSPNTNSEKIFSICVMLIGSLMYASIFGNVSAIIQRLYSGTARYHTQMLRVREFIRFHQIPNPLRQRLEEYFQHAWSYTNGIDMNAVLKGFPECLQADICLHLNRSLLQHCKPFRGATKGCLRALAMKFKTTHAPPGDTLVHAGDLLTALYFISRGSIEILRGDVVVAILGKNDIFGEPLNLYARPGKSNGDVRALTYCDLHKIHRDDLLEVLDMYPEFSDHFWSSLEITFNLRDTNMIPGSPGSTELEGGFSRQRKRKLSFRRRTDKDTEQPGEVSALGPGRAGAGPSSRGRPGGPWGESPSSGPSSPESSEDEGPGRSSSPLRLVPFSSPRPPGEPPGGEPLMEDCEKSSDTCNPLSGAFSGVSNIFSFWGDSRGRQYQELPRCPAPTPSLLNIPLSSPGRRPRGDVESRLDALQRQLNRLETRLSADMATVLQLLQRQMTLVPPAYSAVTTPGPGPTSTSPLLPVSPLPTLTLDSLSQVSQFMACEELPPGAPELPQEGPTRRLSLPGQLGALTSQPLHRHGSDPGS

SMILES | hERG current change (%, negative = inhibition) at 1uM [%]
Cc1cc(-c2nc3ncccc3o2)ccc1NC(=O)CC(C)C | -4.93
O=C(Nc1ccccc1)C1=C[C@@H](c2ccc(C(F)(F)F)cc2)C[C@@H](OCCCCO)O1 | 15.3
Nc1nc(-c2ccc(Cl)cc2)nnc1-c1ccc(Br)cc1 | 24.8
CCNc1nc(NCC)nc(N2CC(=O)N(CC(=O)OCC)C2=N)n1 | 7.16
O=C(CN1C(=O)COc2ccccc21)N1CCc2ccccc2C1 | 8.14
CC1(C)C([N+](=O)[O-])C(c2ccc(O)cc2)NC(c2ccc(O)cc2)C1[N+](=O)[O-] (stereo not drawn) | 10.3
CSc1nc(Oc2ccc(F)cc2F)cc(C(F)(F)F)n1 | 16.9
CC(=NCCC1=CCCCC1)c1c(O)n(C)c(=O)n(C)c1=O | 3.33
O=C1NC(=S)/C(=C\c2ccc(-c3ccccc3Cl)o2)S1 | 17.2
Cc1ccc(C)c2nc(SCC(=O)Nc3ccc4c(c3)OCO4)c(C#N)cc12 | 14.2
CCOc1ccccc1NC(=O)CSc1nnc(Cc2ccc(OC)cc2)c(=O)n1N | -13.3
O=C(CCCCCN1C(=O)[C@@H]2Cc3ccccc3CN2C1=O)N[C@@H](Cc1ccc(O)cc1)C(=O)O | 4.22
CCCn1nnnc1NCc1ccc(N2CCCC2)cc1 | -1.22
CCOc1ccc(CCNS(=O)(=O)c2c(C)nc3scc(C)n3c2=O)cc1OCC | -5.56
Cn1c(N)c(C(=O)COC(=O)C2CCC(C(C)(C)C)CC2)c(=O)n(C)c1=O (stereo not drawn) | 8.69
Cc1cc(C)c(S(C)(=O)=O)c(N(C)NC(=O)c2c(F)cccc2F)n1 | 18.6
O=c1[nH]cccc1-c1nc2ccccc2n1Cc1cccc(F)c1 | -0.764
CCCNC(=O)Cn1nc(C)n2c(cc3cc(F)ccc32)c1=O | 16.3
N#CCC(CNc1ncc(C(F)(F)F)cc1Cl)OC(=O)c1ccc(Cl)cc1Cl (stereo not drawn) | 11.1
Cc1sc2ncnc(Sc3ccccc3C(=O)O)c2c1C | 7.73
O=C(NNC(=O)c1ccccc1)C(=O)N1CCCCC1 | -2.99
Cc1nc(NC(=O)c2ccccc2)sc1-c1csc(NCc2ccccc2)n1 | -6.76

SMILES | hERG current change (%, negative = inhibition) at 1uM [%]
COc1ccc(S(=O)(=O)N2CCC(C(=O)NCC3CCCO3)CC2)cc1C (stereo not drawn) | 14.5
COc1ccccc1C/C(N)=N/OC(=O)COc1ccc(C)cc1C | 16.2
Cc1ccc(NC(=S)NCCc2ccc(Cl)cc2)c(C)c1 | 12.4
CC(C)CCOCC1CC2(CC(C)(c3csc(N)n3)OC2=O)C(=O)O1 (stereo not drawn) | 9.72
CC(=O)NC(CCS(C)(=O)=O)C(=O)Nc1ccc2c(c1)OCO2 (stereo not drawn) | 10.7
CC(CCc1ccccc1)NC(=O)C1CCN(S(=O)(=O)c2cnc[nH]2)CC1 (stereo not drawn) | 8.8
CCN(CC)CCn1c2c(c(SCC(=O)Nc3nc(C)cs3)nc1=O)CCCC2 | -28.6
CCCC1Cc2nc(Cl)c(C#N)cc2CO1 (stereo not drawn) | 14.3
CC(=O)N1C(=O)N(C(C)=O)C2C1N(C(C)=O)C(=O)N2C(C)=O (stereo not drawn) | 5.89
Cc1ccccc1N1CCN(C2CCCN(C(=O)CCN3CCCCC3=O)C2)CC1 (stereo not drawn) | 12.5
COc1cccc(Oc2ccc(C(F)(F)F)cc2N)c1 | 12.9
COc1ccc(-c2nnc(SCc3cccc(C)c3)n2N)cc1 | 2.01
COc1ccc(N2CCN(S(=O)(=O)c3ccc(OC)c(C(=O)N4CCOCC4)c3)CC2)cc1 | 1.61
COc1cccc(NC(=S)NC(=O)c2cncc(Br)c2)c1 | 7.84
CCOc1ccccc1N(CC(=O)NC1CCCCC1)C(=O)CCC(=O)Nc1nccs1 | -12
Cc1ccnc(NC(=O)c2ccc(COc3ccc(Cl)cc3)o2)c1 | 10.2
COc1cccc(/C=N/NC(=O)CNC(=O)/C=C\c2ccccc2)c1O | 2.22
O=C(CSc1nnc(-c2cccnc2)n1Cc1ccco1)N1c2ccccc2Sc2ccccc21 | 1.44
O=C(c1cnccn1)N1CCN(c2ccccc2F)CC1 | 9.98
Cc1ccccc1-n1nc(C(=O)c2cccs2)cc(-c2nc3ccccc3[nH]2)c1=N | 10.2
Cn1c(SCC(=O)N2CCOCC2)nnc1-c1cnccn1 | 15.4
COc1cccc(CN2CCN(C(c3ccccc3)c3ccccc3)CC2)c1O.O=C(O)C(=O)O | 11.6

SMILES | hERG current change (%, negative = inhibition) at 1uM [%]
CCN(C(=O)C(C)Sc1ccc(S(=O)(=O)N2CCOCC2)cn1)c1ccccc1 (stereo not drawn) | 10.9
O=[N+]([O-])c1ccc(S(=O)(=O)NCC(c2ccco2)N2CCc3ccccc3C2)cc1 (stereo not drawn) | 5.76
O=C(NC1CCN(S(=O)(=O)c2cccc(F)c2)CC1)c1cccc(F)c1 | 18.4
CCCCC(=O)N/N=C(\C)CC(=O)Nc1cc(Cl)ccc1OC | 7.39
CCCCNC(=O)CCn1c(=O)c2ccccc2n(Cc2ccccc2C)c1=O | 1.91
COc1ccc(C(CNCC(=O)Nc2ccccc2F)N(C)C)cc1.O=C(O)C(=O)O (stereo not drawn) | -12.8
O=C(CN(C(=O)CNC(=O)c1ccco1)c1ccc2c(c1)OCO2)NC1CCCCC1 | 1.98
Cc1cccc(SCc2noc(C(=O)NCC3CCCO3)c2C(=O)O)c1 (stereo not drawn) | 14.9
CC1OC(Nc2cccc3ccccc23)C(O)C(O)C1O (stereo not drawn) | 4.15
O=C1CN(C(=O)CSc2nc3ccccc3c(=O)n2CCCN2CCOCC2)c2ccccc2N1 | -3.05
O=C(Nc1nnc(-c2ccc3c(c2)CCCC3)o1)C1CCCCC1 | 9.2
Cl.N[C@@H](CCl)C(=O)O | 7
COc1ccc(S(=O)(=O)N2CCCC(C(=O)NCCCn3ccnc3)C2)cc1OC (stereo not drawn) | 12.5
COC(=O)c1ccc(CSc2nnc(N)s2)o1 | 13.3
O=C(NCCSc1c[nH]c2ccccc12)c1ccc2c(c1)OCO2 | 1.98
COc1ccc(CCNC(=O)C(C)Sc2ccccc2)cc1OC (stereo not drawn) | 13.2
O=S(=O)(c1ccc(Br)s1)N1CCN(c2ccccn2)CC1 | 11.1
Cc1ccc(NS(=O)(=O)c2ccc3c(c2)n(C)c(=O)n3C)cc1C | 13.2
CN(Cc1ccco1)S(=O)(=O)c1ccc2c(c1)CCN2C(=O)CCC(=O)O | 18.7
COc1ccc(NC(=O)CSc2nc(C)cc(C)n2)c([N+](=O)[O-])c1 | 14.5
COc1ccc(N2CCN(Cc3nc(Cc4cccc(F)c4)no3)C(C)C2)cc1 (stereo not drawn) | 1.71
Cc1c(C=O)c2ccccc2n1Cc1cccc(F)c1 | 7.37

SMILES | hERG current change (%, negative = inhibition) at 1uM [%]
O=C(COC(=O)CCNS(=O)(=O)c1ccccc1)Nc1ccc(OC(F)F)cc1 | -2.95
CC(C)OC(=O)c1ccc(NC(=O)c2ccco2)cc1 | 6.19
S=C(Nc1ccc2c(c1)OCCO2)Nc1ccccc1Cl | 14.8
Cc1cccc(-c2nnc(NC(=O)c3ccco3)s2)c1 | 18.3
COc1ccc(CCNC(=O)C2CCN(Cc3nc(-c4ccccc4C)oc3C)CC2)cc1OC | -59.9
COc1ccc(C(=O)Nc2c(N)nc(SCC(=O)Nc3ccc(C(C)=O)cc3)[nH]c2=O)cc1 | 10.3
O=S(=O)(c1ccc(-c2n[nH]c(=S)o2)cc1)N1CCCCC1 | 24
Cc1ccc(NC(=O)NC(=O)N(C(C)C)S(=O)(=O)c2ccc(C)cc2)cc1 | 10.2
O=C(N=C1SC2CS(=O)(=O)CC2N1c1ccc(F)c(Cl)c1)C1CCCO1 (stereo not drawn) | 11.4
COc1ccccc1-c1nnc(C2CCN(S(=O)(=O)c3cccc([N+](=O)[O-])c3)CC2)o1 | -21.4
Nc1cccc2c1nnn2C1OC(CO)C(O)C(O)C1O (stereo not drawn) | 16
COC(CNC(=O)C(=O)NCC1OCCN1C(=O)c1ccc(Cl)cc1)OC (stereo not drawn) | 14.2
COc1cccc(C(=O)C2CCCN(Cc3cn(CC(N)=O)c4ccccc34)C2)c1 (stereo not drawn) | -18
CC(C)(C)OC(=O)NCCCC[C@H](NC(=O)c1nc[nH]c1C(=O)N1CCN(c2ccccc2)CC1)C(=O)OC(C)(C)C | 3.55
Cc1sc2nc(SCC(=O)NCc3ccco3)n(Cc3ccccc3)c(=O)c2c1C | 0.939
O=C(NCC(=O)N1CCCCCC1)c1ccc(Cl)cc1 | 13
CC(=O)/C(=N/Nc1ccc(Br)cc1)N1CCCc2ccccc21 | 9.37
CC(C(=O)Nc1ccccc1Cl)c1ccc([N+](=O)[O-])cc1 (stereo not drawn) | 0.442
S=C(Nc1ccccn1)Nc1ccccc1Cl | 14.1
COc1ccc(Cn2nnnc2CN(Cc2cc3ccc(C)cc3[nH]c2=O)C2CCCC2)cc1 | -3.39
COc1ccc(CN(CC(=O)NCC2CCCO2)C(=O)CCC(=O)Nc2cc(C)on2)cc1 (stereo not drawn) | 2.92
